Results as given in the supplement of paper PMC10126150.
Sequences with one replicate were seen in a single cluster, so their values are uncertain.

test system: ATP; assay: switch fluorescence ratio, 500 uM ATP over buffer (Cy3 cluster intensity, sum of 5 cycles each) (fold (ratio)); higher = stronger signal-on switching upon ATP binding; sequences stand for … in TCGTCGGCAGCGTCAGATGTGTATAAGAGACAGTTTTTTTTTTTTTTTTTTTTTTTTT…TC; settings: aptamer strand: ATP DNA aptamer (quencher-CACCTGGGGGAGTATTGCGGAGGAAGG + anchor), 100 nM annealed; ATP concentration: 500 uM; one replicate
Outline: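 Clusters with intensities outside 100-1000 RFU were excluded. The remaining Cy3-labelled switching-strand clusters on a modified Illumina MiSeq flow-cell had been annealed to 100 nM quencher-labelled ATP aptamer and imaged in selection buffer, then after 15 min with 500 uM ATP at 22 °C, for five cycles separated by NaOH stripping and re-annealing. The fluorescence ratio, averaged per switch-domain sequence, is each cluster's summed target-cycle Cy3 intensity over its summed buffer-cycle Cy3 intensity.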
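Further: ATP exposure 15 min at 22 °C before imaging.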

Row | Sequence | switch fluorescence ratio
1 | AGGTGTAGGA | 1.01
2 | AGGTGTGGTG | 0.879
3 | AGGTGTTACG | 0.964
4 | AGGTGTTCGT | 0.996
5 | AGGTGTTTGG | 1.03
6 | AGGTTCCCGA | 0.985
7 | AGGTTCGCAT | 1.06
8 | AGGTTCTTTT | 0.99
9 | AGGTTGAATA | 0.971
10 | AGGTTGCATC | 0.944
11 | AGGTTGCGAA | 0.959
12 | AGGTTGGATG | 1
13 | AGGTTGTACG | 0.992
14 | AGGTTTGGTG | 0.984
15 | AGGTTTTGAA | 0.991
16 | AGTAAATGAA | 1.02
17 | AGTAACAGGT | 1.04
18 | AGTAACTCTA | 0.985
19 | AGTAAGAGGT | 0.954
20 | AGTAATGGGG | 0.958
21 | AGTAATTTCA | 1.03
22 | AGTACCACGC | 1.1
23 | AGTACCCACT | 1.35
24 | AGTACGGTGT | 0.988
25 | AGTACTTAGT | 1.03
26 | AGTAGGAAAG | 1.01

Row | Sequence | switch fluorescence ratio
27 | AGTAGTAACC | 1.03
28 | AGTAGTCACG | 0.945
29 | AGTAGTCTTA | 0.977
30 | AGTAGTTATG | 0.962
31 | AGTAGTTCCT | 1.02
32 | AGTATAAAGA | 1
33 | AGTATAAAGC | 0.995
34 | AGTATACGGA | 0.98
35 | AGTATATAA | 1.03
36 | AGTATCATGG | 1.03
37 | AGTATCCAAT | 1.03
38 | AGTATGATAA | 0.993
39 | AGTATGGGG | 1.09
40 | AGTATTCTGA | 0.997
41 | AGTATTGAA | 1.01
42 | AGTATTGTAT | 0.996
43 | AGTATTTACA | 0.957
44 | AGTCAAGTCT | 1.07
45 | AGTCAATCTG | 0.931
46 | AGTCAATTTT | 0.986
47 | AGTCACTGGA | 1.19
48 | AGTCAGCGGC | 1.01
49 | AGTCAGCGTT | 1.01
50 | AGTCAGGATA | 1
51 | AGTCATACGG | 1.03
52 | AGTCATCCCG | 1.03

Row | Sequence | switch fluorescence ratio
53 | AGTCATTTTT | 1
54 | AGTCCACAGT | 1.1
55 | AGTCCACGAA | 1
56 | AGTCCAGGGC | 1.02
57 | AGTCCAGTTG | 1.09
58 | AGTCCATACC | 1.02
59 | AGTCCGCGCA | 2.14
60 | AGTCCTGGTG | 1.64
61 | AGTCGAACAC | 0.989
62 | AGTCGGCGCG | 0.997
63 | AGTCGGTGAG | 0.984
64 | AGTCGTAAGA | 0.998
65 | AGTCGTACAG | 0.968
66 | AGTCGTAGCT | 1.02
67 | AGTCGTCCGT | 1.05
68 | AGTCGTGCAT | 1.05
69 | AGTCTAACGA | 1
70 | AGTCTATCGT | 0.99
71 | AGTCTATGTT | 0.989
72 | AGTCTATTCC | 1.08
73 | AGTCTATTTG | 0.965
74 | AGTCTCTGCC | 0.968
75 | AGTCTGCTT | 1.02
76 | AGTCTGTGTA | 0.969
77 | AGTCTTAGTG | 0.977
78 | AGTCTTGGTA | 0.981

Row | Sequence | switch fluorescence ratio
79 | AGTGAAGAGG | 0.925
80 | AGTGATCTAA | 1.01
81 | AGTGCAACCT | 1.09
82 | AGTGCATGGG | 0.984
83 | AGTGCCCTAA | 1.06
84 | AGTGCGAGT | 0.993
85 | AGTGCGATTG | 0.974
86 | AGTGCTAGCA | 0.973
87 | AGTGGGAGGT | 0.959
88 | AGTGGGGGCT | 0.939
89 | AGTGGTGATT | 1
90 | AGTGGTGCAG | 1.05
91 | AGTGGTGGCA | 1.01
92 | AGTGTCAACC | 0.942
93 | AGTGTCAAGC | 1.04
94 | AGTGTCCCAC | 0.969
95 | AGTGTGAGGG | 0.973
96 | AGTGTGTGCA | 1.02
97 | AGTGTGTGTA | 1.01
98 | AGTGTGTTGG | 1.03
99 | AGTGTTCTAT | 0.955
100 | AGTGTTGGTG | 1.03
101 | AGTTAAATAT | 1.01
102 | AGTTAACAGG | 0.967
103 | AGTTACAATT | 0.961
104 | AGTTACCCAA | 1.03

Row | Sequence | switch fluorescence ratio
105 | AGTTACGTT | 1.04
106 | AGTTACTCAG | 1.06
107 | AGTTACTGAA | 1.06
108 | AGTTAGCGGC | 1.01
109 | AGTTAGCGGT | 0.978
110 | AGTTATAACC | 0.973
111 | AGTTCAATAT | 1.04
112 | AGTTCCCAGT | 0.999
113 | AGTTCGCGTT | 0.998
114 | AGTTCGGCCC | 0.971
115 | AGTTCTCCTA | 0.97
116 | AGTTCTGAGC | 1.03
117 | AGTTGAACAT | 1.02
118 | AGTTGACGGT | 1.03
119 | AGTTGAGAAT | 0.975
120 | AGTTGAGTGT | 0.995
121 | AGTTGATAGC | 0.962
122 | AGTTGCATAC | 1.35
123 | AGTTGGAGGG | 0.991
124 | AGTTGGGTAG | 1.01
125 | AGTTGTACCG | 0.969
126 | AGTTGTGGCT | 0.974
127 | AGTTGTGTAA | 1.02
128 | AGTTTACCGT | 0.992
129 | AGTTTCTTTG | 1.01
130 | AGTTTGCAAA | 0.992

Row | Sequence | switch fluorescence ratio
131 | AGTTTGCAGG | 0.981
132 | AGTTTGCG | 0.978
133 | AGTTTGGG | 0.977
134 | AGTTTGGTA | 0.965
135 | AGTTTGTCTA | 1.02
136 | AGTTTTACCG | 0.948
137 | AGTTTTGTAC | 1.29
138 | AGTTTTTCGG | 0.982
139 | ATAAAAAACG | 1.05
140 | ATAAAACTGT | 0.981
141 | ATAAAAGGAA | 0.963
142 | ATAAAATGCG | 1.01
143 | ATAAACGTCA | 1.06
144 | ATAAAGAGCT | 1.06
145 | ATAAAGTCTA | 1.01
146 | ATAAATGAAC | 1.03
147 | ATAAATTGGT | 0.921
148 | ATAACATGGA | 1
149 | ATAACCAGG | 1.39
150 | ATAACCCCTC | 1.06
151 | ATAACCTCAT | 0.989
152 | ATAACGGCCC | 1.06
153 | ATAACGGGCT | 0.998
154 | ATAACTAGCA | 0.988
155 | ATAACTATTT | 0.979
156 | ATAACTGGCG | 1.05

Row | Sequence | switch fluorescence ratio
157 | ATAAGATCCC | 1
158 | ATAAGCAATA | 3.94
159 | ATAAGCCATC | 1.07
160 | ATAAGGGGCT | 1.06
161 | ATAAGGGTTG | 1.01
162 | ATAAGGTGC | 1.26
163 | ATAATAAA | 0.956
164 | ATAATAAAAC | 0.967
165 | ATAATACCCG | 1.05
166 | ATAATACGTT | 1.04
167 | ATAATACTAT | 1
168 | ATAATCAGTC | 1.1
169 | ATAATCGCTA | 1.04
170 | ATAATGGGAC | 0.983
171 | ATACAAATAC | 1.52
172 | ATACACCCGG | 1.27
173 | ATACACTGTT | 1.06
174 | ATACAGATGT | 0.987
175 | ATACAGTTAA | 1.02
176 | ATACATCAAA | 0.989
177 | ATACATGGAG | 1.03
178 | ATACATGGCA | 0.981
179 | ATACATTTT | 1
180 | ATACCTGAAA | 1.38
181 | ATACCTGTT | 0.972
182 | ATACGACGGA | 1.01

Row | Sequence | switch fluorescence ratio
183 | ATACGAGCTG | 1.04
184 | ATACGCACGG | 1.56
185 | ATACGGAATG | 1.09
186 | ATACGGTATG | 1.09
187 | ATACGTGCGG | 0.994
188 | ATACGTGGCT | 1.03
189 | ATACGTTC | 1.02
190 | ATACTAACCC | 1.2
191 | ATACTAACCG | 1.11
192 | ATACTACAC | 1.3
193 | ATACTAGGTA | 1.03
194 | ATACTATTTC | 1.03
195 | ATACTCATCA | 1.03
196 | ATACTCTAT | 1.06
197 | ATACTGATGC | 1.08
198 | ATACTGGAAC | 1.07
199 | ATACTTGAAT | 0.975
200 | ATACTTGGTG | 1.09
201 | ATAGAAATGT | 1.05
